The chains are these.
B1: 30675574_30675694_3369_CDS_ENSG00000137337_ENST00000376406|human|control|control (ssRNA)
RNA: GGGAGUUCUACAGUCCGACGAUCCUCUCUGUUUGCUACUGGUCUCUCUACUUCUCUCUCAAAUGCUUUGCUUGGAAGGGUCUGCUUCUGUACUUGUUUCUCUUGUAUUUCCUCAGAUGUCUCAAUUUCUACCUUCAAACUCUCCAACAGAGGAUUGAGCAUCA
B2: chr14:89338683:89338684:+_ENSG00000165533_ENST00000346301|hu_hu|hu_hu_hu_mus_False|38_68 (ssRNA)
RNA: GGGAGUUCUACAGUCCGACGAUCGUGGUUGUUGUGGACCAGGGCCAGCCUGAAGCAUUGGUGGGCCAAAUUUGUAUCUCCGAUUCCCACAGCUAUGUGUCCCAAGUUGUACCAGACAUCAGCUGCCUCUUCUUCAUUUUCAGCCAACAGAGGAUUGAGCAUCA
B3: chr5:135496556:135496557:+_ENSG00000113658_ENST00000545279|hu_mus|motif|central (ssRNA)
RNA: GGGAGUUCUACAGUCCGACGAUCGUUCCUGAACUGAACCAGAAGGCUGUGUUGUGGAUUGAAUUCAUUGUGACGAGGCACGGAUACUGGAGGUAAGACUGGACUCUCCACUCUCUUAUAGUGGUAUGGAUUGAUACAAACUUCCAACAGAGGAUUGAGCAUCA
B4: chr19:16212804:16212805:+_ENSG00000167460_ENST00000300933|hu_mus|hu_hu_hu_mus_False|18_38 (ssRNA)
RNA: GGGAGUUCUACAGUCCGACGAUCAACAAUUCUGGAGUGAAGGAAAGAUGUAACAUGGAACAGCAUUAAAGCUCAGUCAGAAGGCACAUGGGCAACAAUGACUAUUUCAGCAUUCUCCUACGUUGACCUUAAAGACAAUCUGUUCAACAGAGGAUUGAGCAUCA
B5: chr2:207024631:207024632:+_ENSG00000114942_ENST00000392222|hu_hu|FALSE|FALSE (ssRNA)
RNA: GGGAGUUCUACAGUCCGACGAUCCGAGAGCUGGGGAGCAGCAGAAAGAGAGCGCGCAAAUUGUGGGCGCCCCACGCUGAAGAGAGGAAAAAGGACCCGAAGAGACCGGAAAAUUCCUUAUAUAGAGACGGAGGCGUUUCCCUCCAACAGAGGAUUGAGCAUCA
B6: chr7:65705844:65705845:+_ENSG00000169902_ENST00000304842|hu_mus|hu_hu_hu_mus_False|1_108 (ssRNA)
RNA: GGGAGUUCUACAGUCCGACGAUCAAAAGGAUCUUUAUUACAUAAAUAAGGUGCCGGCUCCCCAUGUUUAACAAUGACCUCCAGAAGGAAGGCUUGCAUGGCAGAAUCUAGCACUUCAUCUGUGACACCCGCCUCAUCCAGGCGCAACAGAGGAUUGAGCAUCA
B7: chr6:150114721:150114722:+_ENSG00000120265_ENST00000367380|hu_hu|FALSE|FALSE (ssRNA)
RNA: GGGAGUUCUACAGUCCGACGAUCGUCCUUCCUGACAUUAUUUACUGAGUCAUCUACUAGCUCUUUAAUGUGAUCAAUUCCUAUGACUUUUCCAGUACAUCCAACCAUACGUGCAAAACAUGCAGUAAGGAUUCCACUUCCAGACAACAGAGGAUUGAGCAUCA
B8: chr10:33214929:33214930:-_ENSG00000150093_ENST00000302278|hu_hu|hu_hu_hu_mus_True|8_108 (ssRNA)
RNA: GGGAGUUCUACAGUCCGACGAUCAACAAGUUCAUUAAAAAACUCUCCUCUGUCAGUAAGACUAAGCACAUUUUUGUAGCUAAAUGGGCUGGUGCAGUUUUGUUCACUUGUACAAGGAUUUCUUAGCUUAGCUGGUGUUGUGCUCAACAGAGGAUUGAGCAUCA
B9: chr7:65705475:65705476:+_ENSG00000169902_ENST00000304842|hu_hu|hu_hu_hu_mus_True|18_38 (ssRNA)
RNA: GGGAGUUCUACAGUCCGACGAUCUCUAUUCGGUGAUGGCACUCCAUGGCAUGCUGGCCCAGGUAAAACACGGUCACAGAACUAAUCACCAGACACGCCAAUAGUAAGUUCUGCUUCAGCUUUCCAACCAUCUUGAUGUGGUUACAACAGAGGAUUGAGCAUCA
B10: chr1:244855233:244855234:+_ENSG00000121644_ENST00000302550|hu_mus|hu_hu_hu_mus_True|88_88 (ssRNA)
RNA: GGGAGUUCUACAGUCCGACGAUCCAUCAGAUGGUAGGCGUUGCCCUUGUAUUCUUUCCCCAGUUCUUCUACAAUUUUCUCUAUAUCAUCUUCUAGAAAGUCCGUACUUCCUAGAACAACAGCUUCUUUAAAUUUAAAUGUUUCCAACAGAGGAUUGAGCAUCA
B11: 37086491_37088370_348_CDS_ENSMUSG00000036398_ENSMUST00000040402|mouse|control|control (ssRNA)
RNA: GGGAGUUCUACAGUCCGACGAUCACAGCAGCAUUUCGACGAGCGUCGCCCCAUAUGCUCAUUGUCCACAGUGUCACUGGACCACUCCACCUUCUUCUCUGGCUUGCGUUUCCGAAGUUUCAUAGUUAGGCUCUGAUUCUCUGGCAACAGAGGAUUGAGCAUCA
B12: chr9:14812383:14812384:-_ENSMUSG00000031934_ENSMUST00000164273|mus_mus|mus_mus_mus_hu_True|68_68 (ssRNA)
RNA: GGGAGUUCUACAGUCCGACGAUCAUAGCCCAGGUAGAUACACGCUAACAGUAUAAUGAUGAGUGUCACCAGCCGGCAGCUAAUGUACUUGAUGAUUAAAUUAUUAGAAUUUUUCUUUGUCUUCAAGUACUGCUCCACAAUUGGCAACAGAGGAUUGAGCAUCA
B13: 2700817_2703710_1946_CDS_ENSG00000101596_ENST00000320876|human|control|control (ssRNA)
RNA: GGGAGUUCUACAGUCCGACGAUCGUCAAUUUUCAUUCGCUGUUCCUGUCCAUUUAAAAUCCUUGUAAAAAGGGUGUUCUUAUCUUUCAAUUUUAGCUCAAGAUCCAUAAACGUCAAUUUAUUUGUGCUGACCUGGAAUUUGUCCAACAGAGGAUUGAGCAUCA
B14: chr6:149979360:149979361:-_ENSG00000131023_ENST00000543571|hu_hu|FALSE|FALSE (ssRNA)
RNA: GGGAGUUCUACAGUCCGACGAUCAAAUGAUUGGGAAAAUACAAAUAAGUUCAUUAAAAACACAGGCUGAUUAUUCAUAUCUAUUACAUUCAGAAUUAUGCGAAACAAUUAGUUAUAUUGCAAAGCUGUAAUUCUUUUUCUAACCAACAGAGGAUUGAGCAUCA

This is one part of the list.

The experiment concerns the target T1, UNK ZnF1-3 (human, UniProt Q9C0B0 31-174).
T1 sequence: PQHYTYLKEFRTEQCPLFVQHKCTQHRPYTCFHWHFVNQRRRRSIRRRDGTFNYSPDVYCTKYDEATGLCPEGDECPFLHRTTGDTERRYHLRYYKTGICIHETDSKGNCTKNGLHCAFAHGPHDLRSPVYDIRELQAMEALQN
The experiment in a line: nsRBNS (natural sequence RNA bind-n-seq); RBNS binding buffer (assumed for nsRBNS): 25 mM Tris pH 7.5, 150 mM KCl, 3 mM MgCl2, 0.01% Triton X-100, 500 ug/ml BSA, 20 U/ml SUPERase-In, 4 C; UNK is unkempt and MSI1 is Musashi-1; names of the RNAs are library labels; protein concentration not given here; high values mean tight binding.
In the case of B1, the binding signal worked out at 0.433 enrichment R. In the case of B2 it was 0.86 enrichment R; in that of B3, 1.21 enrichment R. In the case of B4 it was 1.16 enrichment R. Under B5 stands 1.49 enrichment R. In the case of B6, the binding signal came to 0.398 enrichment R. In the case of B7 it was 1.07 enrichment R; in that of B8, 1.1 enrichment R.

B9 gave a binding signal of 0.639 enrichment R. Under B10 stands 1.25 enrichment R. Under B11 stands 0.729 enrichment R. In the case of B12, the binding signal came to 1.36 enrichment R.

Turning to B13, the binding signal is 0.909 enrichment R. Under B14 stands 0.706 enrichment R.

(Values after article PMC12136788.)
